# Data: the supplement of paper PMC3334620
# Over roughly 33,000 sequences, “E-score (-0.5 to 0.5)” has its median near -0.035; the highest 2% begin near 0.35. Some of the results follow.
# Biological target: T1, Pdr3 (UniProt P33200)
# T1 sequence: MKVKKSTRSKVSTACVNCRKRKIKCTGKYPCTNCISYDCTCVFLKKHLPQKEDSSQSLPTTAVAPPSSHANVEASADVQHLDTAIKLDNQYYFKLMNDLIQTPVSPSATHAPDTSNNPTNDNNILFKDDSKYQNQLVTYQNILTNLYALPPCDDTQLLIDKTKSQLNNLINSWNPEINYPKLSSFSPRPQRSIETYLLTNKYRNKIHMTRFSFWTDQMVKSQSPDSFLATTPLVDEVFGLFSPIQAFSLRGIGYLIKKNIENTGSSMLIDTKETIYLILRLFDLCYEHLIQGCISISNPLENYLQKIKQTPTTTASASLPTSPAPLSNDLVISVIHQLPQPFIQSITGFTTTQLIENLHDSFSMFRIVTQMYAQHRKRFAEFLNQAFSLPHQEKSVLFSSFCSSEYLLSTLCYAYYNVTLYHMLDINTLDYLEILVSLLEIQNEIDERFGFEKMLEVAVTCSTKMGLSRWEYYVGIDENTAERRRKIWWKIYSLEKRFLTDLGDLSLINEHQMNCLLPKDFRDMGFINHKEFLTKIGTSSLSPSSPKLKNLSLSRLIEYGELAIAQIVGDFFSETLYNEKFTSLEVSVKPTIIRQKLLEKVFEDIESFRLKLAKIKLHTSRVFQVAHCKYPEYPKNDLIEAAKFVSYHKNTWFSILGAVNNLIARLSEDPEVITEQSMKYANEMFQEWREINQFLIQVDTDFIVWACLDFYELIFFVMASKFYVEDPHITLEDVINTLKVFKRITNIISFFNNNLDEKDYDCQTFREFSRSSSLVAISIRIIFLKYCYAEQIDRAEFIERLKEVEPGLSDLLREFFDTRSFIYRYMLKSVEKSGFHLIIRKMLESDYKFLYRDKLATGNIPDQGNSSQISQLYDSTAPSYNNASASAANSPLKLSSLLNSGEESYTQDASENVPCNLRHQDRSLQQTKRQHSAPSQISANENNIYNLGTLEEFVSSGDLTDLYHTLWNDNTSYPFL
# Test: PBM E-score (8-mer binding enrichment) (E-score (-0.5 to 0.5)); higher = stronger / more preferred TF binding; most listed sequences are background and not binding sites
# Conditions: protein concentration: 200 nM; construct: GST-full length
# Description: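 Universal 'all 10-mer' protein binding microarrays (Agilent AMADID 015681) probed with GST-tagged S. cerevisiae TFs (full-length or DBD) made by in vitro transcription/translation (PURExpress), about 100-200 nM. Bound TF was detected with fluorescent anti-GST. Each ungapped 8-mer (which stands for itself and its reverse complement) is scored by the PBM enrichment score (E-score), a modified Wilcoxon-Mann-Whitney statistic from -0.5 to +0.5, computed with the Universal PBM Analysis Suite. Scale: above 0.35 generally sequence-specific binding.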
row,Sequence,PBM E-score
1,ATACGGGA,0.271
2,ACCCGACA,0.197
3,CCTATATA,-0.00968
4,CCGAGTGA,0.165
5,GATACTCA,0.102
6,GACTCGCC,-0.177
7,ACTAGAGG,-0.161
8,GGGAGCGA,-0.0995
9,GATCTAAA,-0.0672
10,ATCACTCA,-0.194
11,CGCACACC,-0.00955
12,ACGGCTTA,0.143
13,AGACACGA,0.0137
14,ATCTACCG,0.065
15,TGACTGAA,-0.233
16,AACTAGAG,-0.2
17,GGGATGCA,0.0836
18,ACAATCTA,-0.19
19,CATCTGGG,-0.198
20,GCTTAGCC,-0.0322
21,AGATTTAT,0.148
22,AACATAAA,-0.163

row,Sequence,PBM E-score
1,GGGGACGA,-0.0243
2,AATTACAA,-0.215
3,TTAGGCAA,-0.235
4,CCATACGG,0.191
5,ACAACACG,0.0551
6,CGGCTTAG,-0.00213
7,ACTCCCTA,-0.356
8,CCTAACAC,0.175
9,AGTACGCC,-0.181
10,ACGGTCTC,-0.0316
11,ATTAGTCG,0.0481
12,CACATCAG,-0.151
13,GGGTAGTA,-0.0701
14,CCGGCTAA,0.237
15,AACGCACT,-0.0716
16,CTGGGACA,-0.036
17,TAGCGCAA,-0.0466
18,GCGTATTA,-0.134
19,GTAGCGCA,-0.0734
20,AAACTTCT,0.0596
21,GGCAAGCC,-0.132
22,AATTTGTG,0.159

row,Sequence,PBM E-score
1,AAGGACAA,-0.0278
2,ACGCTGTA,-0.00987
3,CTTTAGAA,-0.0131
4,ACGTAGGA,-0.0907
5,CTGCCGCA,-0.0767
6,CTATAATC,-0.112
7,GCCCAGGA,0.0549
8,TAACTATA,-0.217
9,GCGGCAGC,0.0179
10,GACTAGCA,-0.185
11,AATCGAAT,0.0513
12,GCATTTAA,-0.0375
13,CCATCGCG,0.296
14,GAAGTCCA,-0.00424
15,AGAAGGCA,-0.0904
16,CCGAGCAC,0.122
17,AGCGCCGC,0.198
18,CACCCGAA,0.243
19,AATGCCGA,0.219
20,GTCGTCGA,-0.182
21,AGCAGAGA,-0.137
22,GGCGAAAA,0.0972

row,Sequence,PBM E-score
1,ACGAAATG,-0.0714
2,AACATCGT,-0.0769
3,CGTTGGCA,0.103
4,CGGGTCGA,0.198
5,ACATGTGC,-0.00887
6,ACGGATTG,0.32
7,GATGCTGC,-0.0183
8,AAAGGGTG,-0.127
9,CCTACCGA,-0.15
10,GACCTCTC,0.17
11,CTCGGAAG,0.39
12,AACTACCG,0.103
13,CTAGAGAC,-0.246
14,GGGGTTGA,0.0304
15,GATAAACC,0.136
16,ACTCCTTC,-0.152
17,AGCTAGAG,-0.286
18,CGGCTTTC,0.259
19,ACCCCTCT,-0.22
20,GTTAGGCA,-0.298
